This note sets out measurements from patent US20190336582A1 (published 2019).

Substitutions are numbered along the chain they refer to. In names and notes the source's numbering stands.

To fix the notation:
T1: IL-10 receptor (IL-10R1 and IL-10R2 receptor chains) on mouse cells (mouse, UniProt Q61727 17-575; Q61190 20-349)
T1 sequence (looked up) 1: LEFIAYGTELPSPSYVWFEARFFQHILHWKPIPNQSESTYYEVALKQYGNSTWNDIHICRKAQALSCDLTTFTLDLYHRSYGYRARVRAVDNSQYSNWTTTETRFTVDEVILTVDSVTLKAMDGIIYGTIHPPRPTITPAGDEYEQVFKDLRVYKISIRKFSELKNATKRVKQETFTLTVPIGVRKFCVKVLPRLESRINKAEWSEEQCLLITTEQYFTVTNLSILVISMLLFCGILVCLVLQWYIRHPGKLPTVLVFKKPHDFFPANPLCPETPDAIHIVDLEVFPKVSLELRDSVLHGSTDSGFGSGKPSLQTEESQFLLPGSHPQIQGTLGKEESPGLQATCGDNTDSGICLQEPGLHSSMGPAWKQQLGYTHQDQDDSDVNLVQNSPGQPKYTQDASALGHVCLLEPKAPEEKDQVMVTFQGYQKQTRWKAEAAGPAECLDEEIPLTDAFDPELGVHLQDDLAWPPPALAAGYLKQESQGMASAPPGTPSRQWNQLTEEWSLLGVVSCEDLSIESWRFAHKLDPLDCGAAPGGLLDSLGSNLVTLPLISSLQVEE
T1 sequence (looked up) 2: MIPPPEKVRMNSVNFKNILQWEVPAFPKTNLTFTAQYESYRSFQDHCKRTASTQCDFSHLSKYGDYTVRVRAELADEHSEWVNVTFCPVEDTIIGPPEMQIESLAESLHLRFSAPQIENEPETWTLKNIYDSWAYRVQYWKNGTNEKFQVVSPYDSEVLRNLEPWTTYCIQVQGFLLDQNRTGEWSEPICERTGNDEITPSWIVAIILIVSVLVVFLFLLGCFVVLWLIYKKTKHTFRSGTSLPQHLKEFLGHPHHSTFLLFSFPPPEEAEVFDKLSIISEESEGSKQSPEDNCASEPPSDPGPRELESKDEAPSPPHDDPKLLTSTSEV

T2: IL-10 receptor (IL-10R1 and IL-10R2 receptor chains) on human PBMCs (human, UniProt Q13651 22-578; Q08334 20-325)
T2 sequence (looked up) 1: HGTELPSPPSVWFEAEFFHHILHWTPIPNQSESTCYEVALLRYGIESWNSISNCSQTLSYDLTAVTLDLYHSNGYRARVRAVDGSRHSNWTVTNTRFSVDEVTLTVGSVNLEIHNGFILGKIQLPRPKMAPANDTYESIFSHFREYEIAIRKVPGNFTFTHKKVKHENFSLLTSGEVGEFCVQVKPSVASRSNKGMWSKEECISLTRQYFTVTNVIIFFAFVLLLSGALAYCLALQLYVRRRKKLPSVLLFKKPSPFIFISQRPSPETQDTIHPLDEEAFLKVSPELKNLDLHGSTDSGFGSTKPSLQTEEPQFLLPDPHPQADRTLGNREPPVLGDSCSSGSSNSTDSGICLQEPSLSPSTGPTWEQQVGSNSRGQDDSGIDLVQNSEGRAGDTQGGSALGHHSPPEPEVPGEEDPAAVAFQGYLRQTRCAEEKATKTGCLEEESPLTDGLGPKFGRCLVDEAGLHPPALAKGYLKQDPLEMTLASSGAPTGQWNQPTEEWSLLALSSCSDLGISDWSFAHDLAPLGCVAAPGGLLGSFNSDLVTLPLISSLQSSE
T2 sequence (looked up) 2: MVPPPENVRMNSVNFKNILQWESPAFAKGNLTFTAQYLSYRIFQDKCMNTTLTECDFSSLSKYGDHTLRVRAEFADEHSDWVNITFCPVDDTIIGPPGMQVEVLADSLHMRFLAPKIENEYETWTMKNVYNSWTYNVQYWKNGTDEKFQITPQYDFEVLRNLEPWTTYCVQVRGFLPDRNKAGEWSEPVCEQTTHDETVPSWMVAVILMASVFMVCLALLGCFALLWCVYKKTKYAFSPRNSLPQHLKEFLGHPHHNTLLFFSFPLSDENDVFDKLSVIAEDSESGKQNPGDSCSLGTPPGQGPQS

B1: scIL-10:CL:CH1:Fc (scIL10 3aa linker) (Fc fusion)
chain: SPGQGTQSENSCTHFPGNLPNMLRDLRDAFSRVKTFFQMKDQLDNLLLKESLLEDFKGYLGCQALSEMIQFYLEEVMPQAENQDPDIKAHVNSLGENLKTLRLRLRRCHRFLPCENKSKAVEQVKNAFNKLQEKGIYKAMSEFDIFINYIEAYMTMKIRNGGGSPGQGTQSENSCTHFPGNLPNMLRDLRDAFSRVKTFFQMKDQLDNLLLKESLLEDFKGYLGCQALSEMIQFYLEEVMPQAENQDPDIKAHVNSLGENLKTLRLRLRRCHRFLPCENKSKAVEQVKNAFNKLQEKGIYKAMSEFDIFINYIEAYMTMKIRNGGGGSGGGGSRTVAAPSVFIFPPSDEQLKSGTASVVCLLNNFYPREAKVQWKVDNALQSGNSQESVTEQDSKDSTYSLSSTLTLSKADYEKHKVYACEVTHQGLSSPVTKSFNRGECGGGGSGGGGSGGGGSGGGGSASTKGPSVFPLAPSSKSTSGGTAALGCLVKDYFPEPVTVSWNSGALTSGVHTFPAVLQSSGLYSLSSVVTVPSSSLGTQTYICNVNHKPSNTKVDKRV[human IgG1 Fc cut from this listing]
B2: Unsubstituted scIL-10 (10 aa linker):CL:CH1:Fc (Fc fusion)
chain: SPGQGTQSENSCTHFPGNLPNMLRDLRDAFSRVKTFFQMKDQLDNLLLKESLLEDFKGYLGCQALSEMIQFYLEEVMPQAENQDPDIKAHVNSLGENLKTLRLRLRRCHRFLPCENKSKAVEQVKNAFNKLQEKGIYKAMSEFDIFINYIEAYMTMKIRNGGSGGGGSGGSPGQGTQSENSCTHFPGNLPNMLRDLRDAFSRVKTFFQMKDQLDNLLLKESLLEDFKGYLGCQALSEMIQFYLEEVMPQAENQDPDIKAHVNSLGENLKTLRLRLRRCHRFLPCENKSKAVEQVKNAFNKLQEKGIYKAMSEFDIFINYIEAYMTMKIRNGGGGSGGGGSRTVAAPSVFIFPPSDEQLKSGTASVVCLLNNFYPREAKVQWKVDNALQSGNSQESVTEQDSKDSTYSLSSTLTLSKADYEKHKVYACEVTHQGLSSPVTKSFNRGECGGGGSGGGGSGGGGSGGGGSASTKGPSVFPLAPSSKSTSGGTAALGCLVKDYFPEPVTVSWNSGALTSGVHTFPAVLQSSGLYSLSSVVTVPSSSLGTQTYICNVNHKPSNTKVDKRV[human IgG1 Fc cut from this listing]
B3: (scIL-10:Fc), hinge truncation mutant 1 (Fc fusion)
chain: SPGQGTQSENSCTHFPGNLPNMLRDLRDAFSRVKTFFQMKDQLDNLLLKESLLEDFKGYLGCQALSEMIQFYLEEVMPQAENQDPDIKAHVNSLGENLKTLRLRLRRCHRFLPCENKSKAVEQVKNAFNKLQEKGIYKAMSEFDIFINYIEAYMTMKIRNGGSGGSPGQGTQSENSCTHFPGNLPNMLRDLRDAFSRVKTFFQMKDQLDNLLLKESLLEDFKGYLGCQALSEMIQFYLEEVMPQAENQDPDIKAHVNSLGENLKTLRLRLRRCHRFLPCENKSKAVEQVKNAFNKLQEKGIYKAMSEFDIFINYIEAYMTMKIRNS[human IgG1 Fc cut from this listing]
B4: wtIL-10:linker:M22A, D41A (R1 + R2 mutant) (Fc fusion)
chain: B2 chain with M192A, D211A
B5: wtIL-10:linker:D41A (R1 mutant) (Fc fusion)
chain: B2 chain with D211A

The target in one assay is T1, IL-10 receptor (IL-10R1 and IL-10R2 …). As to the kind of experiment: cell-based or functional assay.
Take B1: the “EC50, proliferation of mouse mast cell line MC/9” value amounted to 1.5 pM and the “IC50, inhibition of TNFα production in LPS-stimulated C57BL/6 mouse PBMCs (PBMC + LPS)” value amounted to 0.03 pM.
For B2, in that order: 60 pM and 0.06 pM.
For the molecule B3, the “EC50, proliferation of mouse mast cell line MC/9” value was determined as 494 pM and the “IC50, inhibition of TNFα production in LPS-stimulated C57BL/6 mouse PBMCs (PBMC + LPS)” value turned out to be 0.06 pM.

Another assay deals with T2, IL-10 receptor (IL-10R1 and IL-10R2 …). In words: cell-based or functional assay.
Regarding B2, the “EC50 for STAT3 activation (percent pSTAT3+ cells), CD8 Central Memory cells in human PBMCs” value came to 194 pM; the “EC50 for STAT3 activation (percent pSTAT3+ cells), CD8 Effector Memory cells in human PBMCs” value is 165 pM; the “EC50 for STAT3 activation (percent pSTAT3+ cells), CD8 Terminal Effector cells in human PBMCs” value was determined as 158 pM; the “EC50 for STAT3 activation (percent pSTAT3+ cells), Monocytes in human PBMCs” value is 3.36 pM.
For B4, in that order: 2.46 nM, 1.9 nM, 1.23 nM and 12.5 pM.
For B5, the “EC50 for STAT3 activation (percent pSTAT3+ cells), CD8 Central Memory cells in human PBMCs” value was found to be 1.12 nM; the “EC50 for STAT3 activation (percent pSTAT3+ cells), CD8 Effector Memory cells in human PBMCs” value is 1.08 nM; the “EC50 for STAT3 activation (percent pSTAT3+ cells), CD8 Terminal Effector cells in human PBMCs” value is 1.07 nM; the “EC50 for STAT3 activation (percent pSTAT3+ cells), Monocytes in human PBMCs” value turned out to be 5.09 pM.
